Laboratory results: patent US20170306033A1 (Amgen, published 2017)
Residue numbers refer to the chain shown, from its start. One block for each binder: values may come before it.

Tests used:
[1] = target: human CGRP receptor (human, UniProt Q16602 23-461; O60894 27-148); assay: cell-based or functional assay
[2] = target: T1, human PAC1 receptor (human, UniProt P41586 21-468); assay: cell-based or functional assay
T1 sequence: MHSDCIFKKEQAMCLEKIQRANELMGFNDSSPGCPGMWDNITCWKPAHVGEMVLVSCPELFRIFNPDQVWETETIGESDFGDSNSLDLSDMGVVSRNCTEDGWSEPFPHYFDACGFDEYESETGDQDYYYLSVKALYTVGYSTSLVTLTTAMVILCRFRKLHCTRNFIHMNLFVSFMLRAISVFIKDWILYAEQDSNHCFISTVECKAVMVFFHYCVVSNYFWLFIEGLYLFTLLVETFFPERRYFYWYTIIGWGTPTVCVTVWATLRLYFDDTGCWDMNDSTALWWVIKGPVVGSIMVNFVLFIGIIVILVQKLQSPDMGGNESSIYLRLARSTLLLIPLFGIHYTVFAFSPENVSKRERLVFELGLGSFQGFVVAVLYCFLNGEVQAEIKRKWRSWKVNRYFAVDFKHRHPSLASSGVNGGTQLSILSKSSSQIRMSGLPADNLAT

UniProt Q16602, sequence (Q16602 23-461 limits assumed, chain 1 of 2): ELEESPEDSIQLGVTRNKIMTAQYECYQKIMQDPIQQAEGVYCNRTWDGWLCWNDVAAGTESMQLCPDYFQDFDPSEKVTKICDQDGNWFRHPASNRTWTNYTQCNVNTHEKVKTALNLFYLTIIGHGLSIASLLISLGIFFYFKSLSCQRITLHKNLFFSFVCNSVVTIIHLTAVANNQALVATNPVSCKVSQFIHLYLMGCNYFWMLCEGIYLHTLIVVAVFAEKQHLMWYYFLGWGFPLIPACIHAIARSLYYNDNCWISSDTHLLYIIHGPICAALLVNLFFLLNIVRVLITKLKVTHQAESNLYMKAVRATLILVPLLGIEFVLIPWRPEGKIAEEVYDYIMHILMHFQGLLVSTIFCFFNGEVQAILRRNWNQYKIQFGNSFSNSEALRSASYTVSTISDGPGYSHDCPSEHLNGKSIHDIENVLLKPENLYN
UniProt Q16602, sequence (O60894 27-148 limits assumed, chain 2 of 2, further chain): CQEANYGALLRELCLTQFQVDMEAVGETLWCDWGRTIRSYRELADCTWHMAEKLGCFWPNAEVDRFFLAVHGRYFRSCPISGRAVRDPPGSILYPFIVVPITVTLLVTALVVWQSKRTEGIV

B3: iPS:327102 (bispecific antibody, human IgG1, kappa, lambda)
light 1: DIVMTQSPDSLAVSLGERATIHCKSSQSVLYSSNNKNFLTWYQQKPGQPPKLLIYRASTRESGVPDRFSGSGSGTDFTLTISSLQAEDVAVYFCQQYYSAPFTFGPGTRVDIKRTVAAPSVFIFPPSDEQLKSGTASVVCLLNNFYPREAKVQWKVDNALQSGNSQESVTEQDSKDSTYSLESTLTLSKADYEKHKVYACEVTHQGLSSPVTKSFNRGEC
heavy 1: QVQLQESGPGLVKPSQTLSLTCTVSGGSISSGGYYWSWIRQHPGKGLEWIGYIYYSGNTYYNPSLKSRVTISGDTSKNQFSLKLRSVTAADTAVYYCTRGGAARGMDVWGQGTTVTVSSASTKGPSVFPLAPSSKSTSGGTAALGCLVKDYFPEPVTVSWNSGALTSGVHTFPAVLQSSGLYSLKSVVTVPSSSLGTQTYICNVNHKPSNTKVDKKV[left out - human IgG1 Fc with changes]
light 2: QSVLTQPPSASGTPGQRVTISCSGSSSNIGSNYVYWYQQLPGAAPKLLIFRNNQRPSGVPDRFSGSKSGTSASLAISGLRSEDEADYYCAAWDDSLSGWVFGGGTKLTVLGQPKANPTVTLFPPSSEELQANKATLVCLISDFYPGAVTVAWKADGSPVKAGVETTKPSKQSNNKYAAKSYLSLTPEQWKSHRSYSCQVTHEGSTVEKTVAPTECS
heavy 2: [left out - about 100 residues]DRTGYSISWSSYYYYYGMDVWGQGTTVTVSSASTKGPSVFPLAPSSKSTSGGTAALGCLVKDYFPEPVTVSWNSGALTSGVHTFPAVLQSSGLYSLESVVTVPSSSLGTQTYICNVNHKPSNTKVDKKVEPKSCDKTHTCPPCPAPELLGGPSVFLFPPKPKDTLMISRTPEVTCVVVDVSHEDPEVKFNWYVDGVEVHNAKTKPCEEQYGSTYRCVSVLTVLHQDWLNGKEYKCKVSNKALPAPIEKTISKAKGQPREPQVYTLPPSRKEMTKNQVSLTCLVKGFYPSDIAVEWESNGQPENNYKTTPPVLKSDGSFFLYSKLTVDKSRWQQGNVFSCSVMHEALHNHYTQKSLSLSPGK
% inhibition of human CGRPR [1]: 74%
% inhibition of human PAC1 [2]: 47%

B4: iPS:326414 (bispecific antibody, human IgG1, kappa, lambda)
light 1: DIQMTQSPSSLSASVGDRITITCRASQSISRYLNWYQQKPGKAPKLLIYAASSLQSGIPSRFSGSGSGTDFTLTINSLQPEDFATYFCQQSYSPPFTFGPGTKVDIKRTVAAPSVFIFPPSDEQLKSGTASVVCLLNNFYPREAKVQWKVDNALQSGNSQESVTEQDSKDSTYSLESTLTLSKADYEKHKVYACEVTHQGLSSPVTKSFNRGEC
heavy 1: QVQLQQSGPGLVKPSQTLSLTCAISGDSVSSNSATWNWIRQSPSRGLEWLGRTYYRSKWSNHYAVSVKSRITINPDTSKSQFSLQLNSVTPEDTAVYYCARGTWKQLWFLDHWGQGTLVTVSSASTKGPSVFPLAPSSKSTSGGTAALGCLVKDYFPEPVTVSWNSGALTSGVHTFPAVLQSSGLYSLKSVVTVPSSSLGTQTYICNVNHKPSNTKVDKKV[left out - human IgG1 Fc with changes]
light 2: B3 light 2
heavy 2: [left out - about 100 residues]DRTGYSISWSSYYYYYGMDVWGQGTTVTVSSASTKGPSVFPLAPSSKSTSGGTAALGCLVKDYFPEPVTVSWNSGALTSGVHTFPAVLQSSGLYSLESVVTVPSSSLGTQTYICNVNHKPSNTKVDKKVEPKSCDKTHTCPPCPAPELLGGPSVFLFPPKPKDTLMISRTPEVTCVVVDVSHEDPEVKFNWYVDGVEVHNAKTKPCEEQYGSTYRCVSVLTVLHQDWLNGKEYKCKVSNKALPAPIEKTISKAKGQPREPQVYTLPPSRKEMTKNQVSLTCLVKGFYPSDIAVEWESNGQPENNYKTTPPVLKSDGSFFLYSKLTVDKSRWQQGNVFSCSVMHEALHNHYTQKSLSLSPGK
% inhibition of human CGRPR [1]: 70%
% inhibition of human PAC1 [2]: 58%

B5: iPS:327110 (bispecific antibody, human IgG1, kappa, lambda, N297G)
light 1: B3 light 1
heavy 1: QVQLQESGPGLVKPSQTLSLTCTVSGGSISSGGYYWSWIRQHPGKGLEWIGYIYYSGNTYYNPSLKSRVTISGDTSKNQFSLKLRSVTAADTAVYYCTRGGAARGMDVWGQGTTVTVSSASTKGPSVFPLAPSSKSTSGGTAALGCLVKDYFPEPVTVSWNSGALTSGVHTFPAVLQSSGLYSLKSVVTVPSSSLGTQTYICNVNHKPSNTKVDKKV[left out - human IgG1 Fc with R292C N297G V302C K370D K392D K409D (EU numbers)]
light 2: B3 light 2
heavy 2: [left out - about 100 residues]DRTGYSISWSSYYYYYGMDVWGQGTTVTVSSASTKGPSVFPLAPSSKSTSGGTAALGCLVKDYFPEPVTVSWNSGALTSGVHTFPAVLQSSGLYSLESVVTVPSSSLGTQTYICNVNHKPSNTKVDKKVEPKSCDKTHTCPPCPAPELLGGPSVFLFPPKPKDTLMISRTPEVTCVVVDVSHEDPEVKFNWYVDGVEVHNAKTKPCEEQYGSTYRCVSVLTVLHQDWLNGKEYKCKVSNKALPAPIEKTISKAKGQPREPQVYTLPPSRKKMTKNQVSLTCLVKGFYPSDIAVEWESNGQPENNYKTTPPVLKSDGSFFLYSKLTVDKSRWQQGNVFSCSVMHEALHNHYTQKSLSLSPGK
% inhibition of human CGRPR [1]: 80%
% inhibition of human PAC1 [2]: 71%

Next, values leading:

% inhibition of human CGRPR [1]: 83%
% inhibition of human PAC1 [2]: 56%
B1: iPS:327277 (bispecific antibody, human IgG1, kappa, lambda, N297G)
light 1: B3 light 1
heavy 1: B5 heavy 1
light 2: B3 light 2 with P7S, F50L, A75T
heavy 2: [left out - about 100 residues]DRTGYSISWSSYYYYYGMDVWGQGTTVTVSSASTKGPSVFPLAPSSKSTSGGTAALGCLVKDYFPEPVTVSWNSGALTSGVHTFPAVLQSSGLYSLESVVTVPSSSLGTQTYICNVNHKPSNTKVDKKVEPKSCDKTHTCPPCPAPELLGGPSVFLFPPKPKDTLMISRTPEVTCVVVDVSHEDPEVKFNWYVDGVEVHNAKTKPCEEQYGSTYRCVSVLTVLHQDWLNGKEYKCKVSNKALPAPIEKTISKAKGQPREPQVYTLPPSRKKMTKNQVSLTCLVKGFYPSDIAVEWESNGQPENNYKTTPPVLKSDGSFFLYSKLTVDKSRWQQGNVFSCSVMHEALHNHYTQKSLSLSPGK

% inhibition of human CGRPR [1]: 75%
% inhibition of human PAC1 [2]: 29%
B2: iPS:327267 (bispecific antibody, human IgG1, kappa, lambda)
light 1: B4 light 1
heavy 1: QVQLQQSGPGLVKPSQTLSLTCAISGDSVSSNSATWNWIRQSPSRGLEWLGRTYYRSKWSNHYAVSVKSRITINPDTSKSQFSLQLNSVTPEDTAVYYCARGTWKQLWFLDHWGQGTLVTVSSASTKGPSVFPLAPSSKSTSGGTAALGCLVKDYFPEPVTVSWNSGALTSGVHTFPAVLQSSGLYSLKSVVTVPSSSLGTQTYICNVNHKPSNTKVDKKV[left out - human IgG1 Fc with changes]
light 2: B3 light 2 with P7S, F50L, A75T
heavy 2: [left out - about 100 residues]DRTGYSISWSSYYYYYGMDVWGQGTTVTVSSASTKGPSVFPLAPSSKSTSGGTAALGCLVKDYFPEPVTVSWNSGALTSGVHTFPAVLQSSGLYSLESVVTVPSSSLGTQTYICNVNHKPSNTKVDKKVEPKSCDKTHTCPPCPAPELLGGPSVFLFPPKPKDTLMISRTPEVTCVVVDVSHEDPEVKFNWYVDGVEVHNAKTKPCEEQYGSTYRCVSVLTVLHQDWLNGKEYKCKVSNKALPAPIEKTISKAKGQPREPQVYTLPPSRKEMTKNQVSLTCLVKGFYPSDIAVEWESNGQPENNYKTTPPVLKSDGSFFLYSKLTVDKSRWQQGNVFSCSVMHEALHNHYTQKSLSLSPGK
